Assay results: the supplement of paper PMC10126150
Sequences with one replicate were seen in a single cluster, so their values are uncertain.

System: ATP
Test: switch fluorescence ratio, 500 uM ATP over buffer (Cy3 cluster intensity, sum of 5 cycles each) (fold (ratio)); higher = stronger signal-on switching upon ATP binding; sequences stand for … in TCGTCGGCAGCGTCAGATGTGTATAAGAGACAGTTTTTTTTTTTTTTTTTTTTTTTTT…TC
Details: aptamer strand: ATP DNA aptamer (quencher-CACCTGGGGGAGTATTGCGGAGGAAGG + anchor), 100 nM annealed; ATP concentration: 500 uM; one replicate
Outline: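 Imaging in selection buffer was followed by imaging after 15 min with 500 uM ATP at 22 °C, for Cy3-labelled switching-strand clusters annealed to 100 nM quencher-labelled ATP aptamer on a modified Illumina MiSeq flow-cell. Five of these buffer/ATP cycles ran, separated by NaOH stripping and re-annealing. The fluorescence ratio per cluster is summed target-cycle over summed buffer-cycle Cy3 intensity, averaged per switch-domain sequence; clusters outside 100-1000 RFU were removed.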
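Note: ATP exposure 15 min at 22 °C before imaging.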

Sequence | switch fluorescence ratio
CTGAGTGCAA | 2.58
CAAATAGCTC | 1.04
TATTCAGGCT | 1.05
TCCATACAGT | 1.01
TTCGTAAGA | 1.02
AGGAAGAAGC | 1.01
AAACGCTTGA | 1.06
ATGGTTCGTC | 1.03
AGTCGCACCA | 1.02
GTGGGGGTCA | 1.02
TCCGCTAGTT | 1.65
TTATGTCTAT | 0.999
ATTAGGTCTT | 1.04
GTTATGCCGC | 1.11
TCTTCGCTAG | 1.75
ACTAGAATCG | 0.985
TCCACAGCCA | 2.36
TGACCGGGGT | 1.01
TGGCGACCTT | 1.08
TGTTCCTGAG | 1.05
AATCGGCCCG | 0.948
GGGAAGCACT | 1.03
CCCTTCGGG | 0.931

Sequence | switch fluorescence ratio
ACATTTTAGT | 0.996
TCGTTACGT | 0.968
GGACTCCTGT | 0.972
AACATCGTGA | 0.974
CTAAAGAAGT | 0.989
TTGGGAGGTA | 1.08
GTATAGGTCC | 1.02
TAATTGTTGG | 0.968
TCAAGGCCGT | 0.929
AAAGTACAGC | 1.22
TAGGGTTTAT | 1.03
GTGCGGCGTG | 1.06
TGTTAGGGC | 1.01
TGAGAGCCTT | 1.01
TGACTGCTTC | 1
CGTCGTTGAC | 0.998
AATCGATTGC | 0.979
CCGGAGCCGA | 1.03
GCTGGGGAAT | 0.997
ACCTACAGGG | 1.1
CAATGAAGTG | 0.977
ATGATTCGAC | 1.01
GCTACCGGTA | 1.04

Sequence | switch fluorescence ratio
GCGTTTCGAA | 0.945
AATGCGAGTG | 0.976
GAGTCTACAG | 0.969
TGTTGCCTAG | 0.922
TACAGGCTGT | 1.03
ACTTTAGGTC | 1.01
GGAAAGACCC | 1
CCGGGCCTGT | 1.02
CAACACACA | 1.27
TATAAGCTGT | 1.02
CTACCACCTA | 1.19
AACATAGTGC | 0.973
GGCGACTGCT | 0.958
CCCGACTCAT | 1.46
TCACAAATCC | 0.982
GTTCTATTCA | 0.971
GGAATGGATT | 0.99
TTTGTTGAAT | 1
CGTGTAAATC | 1.01
GTCACAAGTG | 1
CGCAGGTCAA | 1.19
TTCCATGGAT | 0.996
GCAGAGGCTC | 1.02

Sequence | switch fluorescence ratio
AACATTGCGG | 1
ACATAAGTGT | 0.995
TGACAGCCG | 1.11
CGTCGGTGAC | 1.01
AAGGTCGTAC | 0.982
GATCGAACAC | 1.06
ATGCTGTC | 1.1
AAACGACCTT | 1.4
ATAAAGAGTA | 1
TGATTCCC | 0.978
CTTCAGGCTT | 0.94
GGGCAAATGT | 1.01
GAAATCGAGT | 0.943
GGAGCCTGG | 0.974
GGCTGGCTAG | 0.968
ATACAGCGCT | 1.02
GCGTTCTTTA | 0.986
AATAAAGTAG | 0.962
TGCCGCTGGC | 1.1
TAAAATGATG | 1.02
ATCTAGTTGT | 0.991
TGATATCCGG | 0.955
ATATGCCGTT | 1.03

Sequence | switch fluorescence ratio
TCTTCAAATG | 1.02
AATAGTTAAC | 0.99
AAGTCTTCAG | 0.973
ATGAGGGATA | 1.05
GCACGGGAAA | 0.985
TGGATGACTA | 1.01
CGTTGTGCCT | 1.03
TGGGATTTCG | 0.995
GCCCCGGCC | 0.977
GCTTCGACGG | 1.07
AACCCTGAAA | 0.986
AGAAACTGGC | 1.03
ATTATGGAGA | 1.01
TCATGGGCAC | 0.99
GGCTACTACG | 1.04
GGGATGCGGG | 0.961
TTGCGGGTCT | 0.897
TGCAACTGCG | 1.02
TGTAAAGCAG | 1.01
ATTAAGAAT | 0.98
ATGTACTAGA | 1.04
ATATCAGTAA | 0.978
TTGGTCCCAG | 1

Sequence | switch fluorescence ratio
TAGTGGGGAG | 0.959
GCCGGAGGG | 1.02
CTCCGGGGCT | 1.8
ATAATGCAAT | 1.03
AATAGCGGGT | 0.951
ACCGAGATAT | 1.13
ACCCTGTCCT | 1.09
GACTATATGT | 0.981
ACGATTGTTT | 1.05
ACCGGTCAGG | 0.992
ATTAGGGGTG | 1.11
ACCGCGGTG | 0.988
GGAGAAACTT | 0.989
AAAGTATTGC | 1.04
GGTGCAGTAA | 1.01
CTGTTTTCTC | 0.961
CCTTATGTCA | 1.01
AGGTTAGTTA | 0.988
GCGTAAGATT | 0.965
AATTTCGTCG | 0.979
TTTTAAGC | 1.01
GAACCTCCTG | 1.13
GCGATGGCAA | 1.39

Sequence | switch fluorescence ratio
GACGCTTGTG | 1.05
ACGACCGTGG | 0.979
GCGAAAGAGC | 0.997
AGGTCCCTTG | 0.993
GTTTTGTCTA | 0.945
CTTCCCCGAA | 4.22
TGCCGTTCTG | 0.989
GGCCGGGATG | 1
TGCACGATCT | 1.28
GAGATCGGAA | 1.01
GGCGAGAGTA | 0.944
GATCAAAGAT | 0.974
ACATCATAAT | 1.01
TAGTAGGAAC | 0.994
TGCCAATTTT | 1.06
CTCCTGGGC | 1.17
GGCAACAGGA | 0.983
AGCATGTAAA | 0.985
AGCGGGTGAC | 1.05
